The other results are listed elsewhere or left out.
B1: PhoQ; a variant is named by its letters at X, in order, P23837 (parent)
chain: MKKLLRLFFPLSLRVRFLLATAAVVLVLSLAYGMVALIGYSVSFDKTTFRLLRGESNLFYTLAKWENNKLHVELPENIDKQSPTMTLIYDENGQLLWAQRDVPWLMKMIQPDWLKSNGFHEIEADVNDTSLLLSGDHSIQQQLQEVREDDDDAEMTHSVAVNVYPATSRMPKLTIVVVDTIPVELKSSYMVWSWFIYVLSANLLLVIPLLWVAAWWSLRPIEALAKEVRELEEHNRELLNPATTRELTSLVRNLNRLLKSERERYDKYRTTLTDLTHSLKTPLXXLQXXLRSLRSEKMSVSDAEPVMLEQISRISQQIGYYLHRASMRGGTLLSRELHPVAPLLDNLTSALNKVYQRKGVNISLDISPEISFVGEQNDFVEVMGNVLDNACKYCLEFVEISARQTDEHLYIVVEDDGPGIPLSKREVIFDRGQRVDTLRPGQGVGLAVAREITEQYEGKIVAGESMLGGARMEVIFGRQHSAPKDE

Variants of: B1
Test: enrichment ratio after two sorts for PhoP signalling (ratio (wild type AVST 3.29)); higher = more functional
Conditions: with PhoP (E. coli)
For WFDF, the enrichment ratio was ≤ 0.25. FWAT was tested, and the enrichment ratio was ≤ 0.25. With VNSQ the enrichment ratio was ≤ 0.25. For SMDC, the enrichment ratio was ≤ 0.25. With KIHW the enrichment ratio was ≤ 0.25. With ELYM the enrichment ratio was ≤ 0.25. FLDM was tested, and the enrichment ratio was ≤ 0.25. VFMH was tested, and the enrichment ratio was ≤ 0.25. For CPFK, the enrichment ratio was ≤ 0.25. For LCCV, the enrichment ratio was ≤ 0.25. NAWS was tested, and the enrichment ratio was ≤ 0.25. For AFHY, the enrichment ratio was ≤ 0.25. With IKTM the enrichment ratio was ≤ 0.25. DFIL was tested, and the enrichment ratio was ≤ 0.25. NDAA was tested, and the enrichment ratio was ≤ 0.25. VTTQ was tested, and the enrichment ratio was ≤ 0.25. For ICRP, the enrichment ratio was ≤ 0.25. For AVIH, the enrichment ratio was 0.25. In the case of FFVN, the enrichment ratio is reported as ≤ 0.25. SFKA was tested, and the enrichment ratio was ≤ 0.25. In the case of LLLW, the enrichment ratio is reported as ≤ 0.25. With AYFQ the enrichment ratio was ≤ 0.25. EYPF was tested, and the enrichment ratio was ≤ 0.25. With KKFA the enrichment ratio was ≤ 0.25. With FYWE the enrichment ratio was ≤ 0.25. For FQRR, the enrichment ratio was ≤ 0.25. SGSM showed an enrichment ratio of 12.7. For KCGF, the enrichment ratio was ≤ 0.25. For KCLA, the enrichment ratio was ≤ 0.25. For FMVM, the enrichment ratio was ≤ 0.25. With WRPR the enrichment ratio was ≤ 0.25. For RTSE, the enrichment ratio was ≤ 0.25. GPQR was tested, and the enrichment ratio was ≤ 0.25. SNMP was tested, and the enrichment ratio was ≤ 0.25. With MIID the enrichment ratio was ≤ 0.25. With SKFG the enrichment ratio was ≤ 0.25. Variant TALR has an enrichment ratio of 3.62. With QFHQ the enrichment ratio was ≤ 0.25. In the case of WSDW, the enrichment ratio is reported as ≤ 0.25. Variant SGVY has an enrichment ratio of 7.41. QGTQ was tested, and the enrichment ratio was ≤ 0.25. For FVGL, the enrichment ratio was ≤ 0.25. In the case of VYVH, the enrichment ratio is reported as ≤ 0.25. With IRAL the enrichment ratio was ≤ 0.25. For RYER, the enrichment ratio was ≤ 0.25. With YCCI the enrichment ratio was ≤ 0.25. In the case of MQRP, the enrichment ratio is reported as ≤ 0.25. With NWQP the enrichment ratio was ≤ 0.25. TRLV was tested, and the enrichment ratio was 9.51. In the case of RGHH, the enrichment ratio is reported as ≤ 0.25. TCML showed an enrichment ratio of 16.7. In the case of HCVL, the enrichment ratio is reported as ≤ 0.25. PCCS was tested, and the enrichment ratio was ≤ 0.25. For KITQ, the enrichment ratio was ≤ 0.25. IKPV was tested, and the enrichment ratio was ≤ 0.25. In the case of HIVC, the enrichment ratio is reported as ≤ 0.25. In the case of SQQY, the enrichment ratio is reported as ≤ 0.25. With IYCR the enrichment ratio was ≤ 0.25. EECP was tested, and the enrichment ratio was ≤ 0.25. LQLI was tested, and the enrichment ratio was ≤ 0.25. With MHRW the enrichment ratio was ≤ 0.25. For DTCD, the enrichment ratio was ≤ 0.25. With FMDP the enrichment ratio was ≤ 0.25. In the case of VFQQ, the enrichment ratio is reported as ≤ 0.25. HTWS was tested, and the enrichment ratio was ≤ 0.25. With HGDI the enrichment ratio was ≤ 0.25. RAPG was tested, and the enrichment ratio was ≤ 0.25. With HDEG the enrichment ratio was ≤ 0.25. VHIP was tested, and the enrichment ratio was ≤ 0.25. HMQA was tested, and the enrichment ratio was ≤ 0.25. For EELN, the enrichment ratio was ≤ 0.25. For RAAY, the enrichment ratio was ≤ 0.25. With MKHA the enrichment ratio was ≤ 0.25. In the case of LHGY, the enrichment ratio is reported as ≤ 0.25. With LDEK the enrichment ratio was ≤ 0.25. In the case of PISP, the enrichment ratio is reported as ≤ 0.25. MYMT was tested, and the enrichment ratio was ≤ 0.25. In the case of EKFP, the enrichment ratio is reported as ≤ 0.25. In the case of ITWE, the enrichment ratio is reported as ≤ 0.25. In the case of FKIR, the enrichment ratio is reported as ≤ 0.25. For YEEG, the enrichment ratio was ≤ 0.25. LCFE was tested, and the enrichment ratio was ≤ 0.25. With DGTE the enrichment ratio was ≤ 0.25. In the case of VPFI, the enrichment ratio is reported as ≤ 0.25. For YEDI, the enrichment ratio was ≤ 0.25. For DGVS, the enrichment ratio was ≤ 0.25. In the case of KAFK, the enrichment ratio is reported as ≤ 0.25. For WPPN, the enrichment ratio was ≤ 0.25. SLPW was tested, and the enrichment ratio was ≤ 0.25. For AVVW, the enrichment ratio was 7.9. YMVA was tested, and the enrichment ratio was ≤ 0.25. For WSVL, the enrichment ratio was ≤ 0.25. For SPWA, the enrichment ratio was ≤ 0.25. In the case of DRSN, the enrichment ratio is reported as ≤ 0.25. In the case of GNRM, the enrichment ratio is reported as ≤ 0.25. For FDAY, the enrichment ratio was ≤ 0.25. For PSKP, the enrichment ratio was ≤ 0.25. In the case of IGLW, the enrichment ratio is reported as ≤ 0.25. ADNL was tested, and the enrichment ratio was ≤ 0.25. With PMTR the enrichment ratio was ≤ 0.25. In the case of DWGL, the enrichment ratio is reported as ≤ 0.25. For TAPA, the enrichment ratio was ≤ 0.25. For PHQY, the enrichment ratio was ≤ 0.25. WSTC was tested, and the enrichment ratio was ≤ 0.25. With QAKL the enrichment ratio was ≤ 0.25. TKSF was tested, and the enrichment ratio was 1.23. With MMMF the enrichment ratio was ≤ 0.25. TWGM was tested, and the enrichment ratio was ≤ 0.25. With PLDA the enrichment ratio was ≤ 0.25. In the case of AECV, the enrichment ratio is reported as 21.4. For VECR, the enrichment ratio was ≤ 0.25. With MKDW the enrichment ratio was ≤ 0.25. With HKQI the enrichment ratio was ≤ 0.25. For ESTK, the enrichment ratio was ≤ 0.25. In the case of MEWN, the enrichment ratio is reported as ≤ 0.25. In the case of PWNW, the enrichment ratio is reported as ≤ 0.25. With YRVC the enrichment ratio was 0.653. DQSM was tested, and the enrichment ratio was ≤ 0.25. LEWT was tested, and the enrichment ratio was 12.5. With GRDF the enrichment ratio was ≤ 0.25. For KCVK, the enrichment ratio was ≤ 0.25. For ALTA, the enrichment ratio was ≤ 0.25. In the case of KNCR, the enrichment ratio is reported as ≤ 0.25. YTPC was tested, and the enrichment ratio was ≤ 0.25. For VQGN, the enrichment ratio was ≤ 0.25. FLAK was tested, and the enrichment ratio was ≤ 0.25. With KVYN the enrichment ratio was ≤ 0.25. For TYKS, the enrichment ratio was ≤ 0.25. In the case of RIGN, the enrichment ratio is reported as ≤ 0.25. For PETY, the enrichment ratio was ≤ 0.25. In the case of KECF, the enrichment ratio is reported as ≤ 0.25. ECLM was tested, and the enrichment ratio was ≤ 0.25. For APVN, the enrichment ratio was ≤ 0.25. With VRGF the enrichment ratio was ≤ 0.25. In the case of YDCP, the enrichment ratio is reported as ≤ 0.25. With TRRK the enrichment ratio was ≤ 0.25. For FLWK, the enrichment ratio was ≤ 0.25. With QDMS the enrichment ratio was ≤ 0.25. With YDCH the enrichment ratio was ≤ 0.25. For VAIK, the enrichment ratio was ≤ 0.25. In the case of NFNT, the enrichment ratio is reported as ≤ 0.25. With DDDV the enrichment ratio was ≤ 0.25. For AIKP, the enrichment ratio was ≤ 0.25. In the case of RPQD, the enrichment ratio is reported as ≤ 0.25. VSMV gave an enrichment ratio of 9.73. For RHQY, the enrichment ratio was ≤ 0.25. EIYS was tested, and the enrichment ratio was ≤ 0.25. With WENY the enrichment ratio was ≤ 0.25. WNLE was tested, and the enrichment ratio was ≤ 0.25. With YPAK the enrichment ratio was ≤ 0.25. With HWQP the enrichment ratio was ≤ 0.25. In the case of AQYM, the enrichment ratio is reported as ≤ 0.25. With YWIK the enrichment ratio was ≤ 0.25. For SPCI, the enrichment ratio was 2.03. Variant AKAV has an enrichment ratio of 0.73. For HQTQ, the enrichment ratio was ≤ 0.25. QANK was tested, and the enrichment ratio was ≤ 0.25. With DYCH the enrichment ratio was ≤ 0.25. With HLWL the enrichment ratio was ≤ 0.25. With RWPI the enrichment ratio was ≤ 0.25. With IPMK the enrichment ratio was ≤ 0.25. With DRHI the enrichment ratio was ≤ 0.25. For MNEW, the enrichment ratio was ≤ 0.25. PCPI was tested, and the enrichment ratio was ≤ 0.25. In the case of QQMS, the enrichment ratio is reported as ≤ 0.25. SMLF showed an enrichment ratio of 6.71. In the case of ALLC, the enrichment ratio is reported as 1.19. For FEKG, the enrichment ratio was ≤ 0.25. For LMNH, the enrichment ratio was ≤ 0.25. VRVK was tested, and the enrichment ratio was ≤ 0.25. In the case of RMCW, the enrichment ratio is reported as ≤ 0.25. With FMED the enrichment ratio was ≤ 0.25. In the case of WRQN, the enrichment ratio is reported as ≤ 0.25. With LVGR the enrichment ratio was ≤ 0.25. With HKLG the enrichment ratio was ≤ 0.25. GYRA was tested, and the enrichment ratio was ≤ 0.25. In the case of TFRV, the enrichment ratio is reported as ≤ 0.25. For KSGQ, the enrichment ratio was ≤ 0.25. In the case of TDNW, the enrichment ratio is reported as ≤ 0.25. With FQCW the enrichment ratio was ≤ 0.25. For ACGY, the enrichment ratio was ≤ 0.25. With HCWR the enrichment ratio was ≤ 0.25. RFSC was tested, and the enrichment ratio was ≤ 0.25. HGMT was tested, and the enrichment ratio was ≤ 0.25. With MPMG the enrichment ratio was ≤ 0.25. SSKC was tested, and the enrichment ratio was ≤ 0.25. For YGEG, the enrichment ratio was ≤ 0.25. Variant TSAL has an enrichment ratio of 13. In the case of HFAC, the enrichment ratio is reported as ≤ 0.25. With TWIC the enrichment ratio was ≤ 0.25. TEFQ showed an enrichment ratio of 8.52. With HLLH the enrichment ratio was ≤ 0.25. PLYL was tested, and the enrichment ratio was ≤ 0.25. With HHTP the enrichment ratio was ≤ 0.25. For LKEF, the enrichment ratio was ≤ 0.25.

From a collection of fitness landscapes (doi:10.1126/science.1257360)
